# Experimental data as given in the supplement of paper PMC7826260.
# Some of the results follow. One pool of 16,384 single-stranded DNAs met each Rep nickase domain in vitro at 3 µM enzyme and 37 °C for 1 h; the strands have 90 letters, of which the middle is given. The score is log2 (uncut reads / reads without enzyme); strong cutting gives strongly negative numbers. There is no active / inactive call. Because reads are shares of a total, they shift together; uncut strands gain when others are lost, and binding without cutting may add a little.
# System: T1, Rep nickase domain of Muscovy duck circovirus
# T1 sequence (residues 1-111 of Rep, tag left off): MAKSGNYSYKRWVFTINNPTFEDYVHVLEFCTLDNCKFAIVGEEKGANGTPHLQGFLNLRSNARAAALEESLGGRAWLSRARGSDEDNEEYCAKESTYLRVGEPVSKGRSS
# Test: uncleaved DNA left, log2 of reads against the no-enzyme library (log2 ratio); higher = less cleavage (more negative = more Rep cleavage of the k-mer); sequences stand for … in CTCGTCCG…ACCGGAGA
# Protocol: (§1)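 A pool of 90-nt single-stranded DNAs with seven random bases just before the constant AC of the nick site (name = the seven bases) was cut by 3 µM recombinant His6-SUMO-tagged Rep nickase domain (300 nM DNA, 50 mM HEPES pH 8.0, 50 mM NaCl, 1 mM MnCl2, 1 h, 37 °C, three replicates). Uncut DNA was amplified and sequenced.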
row,Sequence,uncleaved DNA left (log2)
1,TGTGTCG,0.0837
2,TCGAGGG,-0.0597
3,CCAGACG,-0.0036
4,GAAGTAT,0.0658
5,CCTCCCC,-0.119
6,CCTCGAT,4.67e-05
7,ACTGATC,0.191
8,TATTAAC,-0.0106
9,GGAGGAT,-0.0227
10,GCCTTCT,-0.443
11,CTTATTT,-0.162
12,TTTAACG,-0.0317
13,TTGGGGG,0.000961
14,GCTCGTA,0.0451
15,TACTTTG,0.000886
16,ACGTCAT,0.0351
17,AACCTCG,0.0893
18,ACAACAC,-0.0763
19,GGCAGGC,0.072
20,CTACGGC,-0.0248

row,Sequence,uncleaved DNA left (log2)
1,AACCCCC,-0.147
2,GTATACA,-0.0532
3,TTTAATT,-0.379
4,TTGCTGT,0.0905
5,CCTTGTG,-0.137
6,GGCAAAC,-0.0435
7,AAAGAAG,0.0865
8,TGGATGT,0.0272
9,TCTGCCT,-0.0784
10,ACCATGA,0.02
11,GAGAGCA,0.0986
12,ATCATCC,0.123
13,TGTTATT,-3.19
14,TATGCCG,0.0438
15,AGGGCTG,-0.0203
16,AGGTCAG,0.109
17,GGGAACG,0.0565
18,CATTAGA,-0.0619
19,GCTGCTA,-0.0774
20,GGGCAGA,0.0673

# System: T2, Rep nickase domain of banana bunchy top virus
# T2 sequence (residues 1-94 of Rep, tag left off): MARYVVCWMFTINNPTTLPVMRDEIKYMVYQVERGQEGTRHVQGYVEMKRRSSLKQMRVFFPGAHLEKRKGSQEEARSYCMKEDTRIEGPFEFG
# Test: as above
# Protocol: as §1
row,Sequence,uncleaved DNA left (log2)
1,TGTGTCG,-0.0315
2,TCGAGGG,-0.0778
3,CCAGACG,0.0252
4,GAAGTAT,0.129
5,CCTCCCC,-0.0315
6,CCTCGAT,-0.0842
7,ACTGATC,0.13
8,TATTAAC,0.0525
9,GGAGGAT,0.0282
10,GCCTTCT,0.0471
11,CTTATTT,0.00912
12,TTTAACG,-0.0732
13,TTGGGGG,-0.106
14,GCTCGTA,0.162
15,TACTTTG,-0.0157
16,ACGTCAT,0.0249
17,AACCTCG,0.05
18,ACAACAC,-0.0593
19,GGCAGGC,0.00125
20,CTACGGC,-0.0816

row,Sequence,uncleaved DNA left (log2)
1,AACCCCC,-0.00401
2,GTATACA,0.153
3,TTTAATT,-0.0899
4,TTGCTGT,-0.0697
5,CCTTGTG,-0.0804
6,GGCAAAC,0.071
7,AAAGAAG,0.121
8,TGGATGT,0.0805
9,TCTGCCT,-0.215
10,ACCATGA,0.0867
11,GAGAGCA,0.081
12,ATCATCC,0.0527
13,TGTTATT,-2.75
14,TATGCCG,-0.128
15,AGGGCTG,-0.0209
16,AGGTCAG,0.151
17,GGGAACG,0.0799
18,CATTAGA,-0.144
19,GCTGCTA,-0.0328
20,GGGCAGA,0.0763

# System: T3, Rep nickase domain of cabbage leaf curl virus
# T3 sequence (residues 1-116 of Rep, tag left off): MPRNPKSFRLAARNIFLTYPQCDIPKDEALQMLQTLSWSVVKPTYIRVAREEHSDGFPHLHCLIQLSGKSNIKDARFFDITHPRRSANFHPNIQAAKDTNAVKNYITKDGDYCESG
# Test: as above
# Protocol: as §1
row,Sequence,uncleaved DNA left (log2)
1,TGTGTCG,-0.749
2,TCGAGGG,-0.0594
3,CCAGACG,-0.837
4,GAAGTAT,0.234
5,CCTCCCC,0.00539
6,CCTCGAT,0.204
7,ACTGATC,0.14
8,TATTAAC,-0.175
9,GGAGGAT,0.296
10,GCCTTCT,0.0905
11,CTTATTT,-0.2
12,TTTAACG,-0.819
13,TTGGGGG,0.159
14,GCTCGTA,0.0574
15,TACTTTG,-0.534
16,ACGTCAT,-0.0899
17,AACCTCG,-0.935
18,ACAACAC,-0.104
19,GGCAGGC,0.561
20,CTACGGC,-0.113

row,Sequence,uncleaved DNA left (log2)
1,AACCCCC,0.315
2,GTATACA,0.294
3,TTTAATT,0.0323
4,TTGCTGT,-0.429
5,CCTTGTG,-0.675
6,GGCAAAC,0.509
7,AAAGAAG,-0.729
8,TGGATGT,0.672
9,TCTGCCT,-0.15
10,ACCATGA,-0.447
11,GAGAGCA,0.24
12,ATCATCC,0.0437
13,TGTTATT,-0.176
14,TATGCCG,-0.981
15,AGGGCTG,0.186
16,AGGTCAG,0.0873
17,GGGAACG,0.802
18,CATTAGA,-0.636
19,GCTGCTA,-0.206
20,GGGCAGA,0.884

# System: T4, Rep nickase domain of chickpea chlorotic dwarf virus
# T4 sequence (residues 1-124 of Rep, tag left off): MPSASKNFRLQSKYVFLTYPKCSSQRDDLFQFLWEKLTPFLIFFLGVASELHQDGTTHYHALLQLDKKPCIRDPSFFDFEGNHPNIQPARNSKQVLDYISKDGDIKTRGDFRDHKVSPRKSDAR
# Test: as above
# Protocol: as §1
row,Sequence,uncleaved DNA left (log2)
1,TGTGTCG,0.213
2,TCGAGGG,0.215
3,CCAGACG,-0.633
4,GAAGTAT,0.311
5,CCTCCCC,-0.317
6,CCTCGAT,1.01
7,ACTGATC,0.62
8,TATTAAC,-1.84
9,GGAGGAT,1.53
10,GCCTTCT,-1.02
11,CTTATTT,-2.28
12,TTTAACG,-0.795
13,TTGGGGG,0.182
14,GCTCGTA,0.295
15,TACTTTG,-1.05
16,ACGTCAT,-0.525
17,AACCTCG,-0.623
18,ACAACAC,-0.516
19,GGCAGGC,1.21
20,CTACGGC,-0.637

row,Sequence,uncleaved DNA left (log2)
1,AACCCCC,-0.0555
2,GTATACA,0.607
3,TTTAATT,-2.62
4,TTGCTGT,-0.458
5,CCTTGTG,0.522
6,GGCAAAC,1.4
7,AAAGAAG,-0.306
8,TGGATGT,1.54
9,TCTGCCT,-1.18
10,ACCATGA,-0.261
11,GAGAGCA,0.402
12,ATCATCC,8.78e-05
13,TGTTATT,-2.58
14,TATGCCG,0.187
15,AGGGCTG,0.873
16,AGGTCAG,0.843
17,GGGAACG,1.86
18,CATTAGA,-0.8
19,GCTGCTA,-0.0599
20,GGGCAGA,2.01

# System: T5, Rep nickase domain of faba bean necrotic yellows virus
# T5 sequence (residues 1-98 of Rep, tag left off): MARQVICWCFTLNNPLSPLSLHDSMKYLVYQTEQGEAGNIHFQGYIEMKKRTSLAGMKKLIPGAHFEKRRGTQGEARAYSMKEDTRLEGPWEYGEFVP
# Test: as above
# Protocol: as §1
row,Sequence,uncleaved DNA left (log2)
1,TGTGTCG,-0.0754
2,TCGAGGG,0.0123
3,CCAGACG,0.035
4,GAAGTAT,0.0994
5,CCTCCCC,-0.031
6,CCTCGAT,-0.0843
7,ACTGATC,-0.0962
8,TATTAAC,0.0766
9,GGAGGAT,-0.0927
10,GCCTTCT,0.055
11,CTTATTT,-0.0458
12,TTTAACG,-0.0206
13,TTGGGGG,-0.0174
14,GCTCGTA,0.0531
15,TACTTTG,0.00902
16,ACGTCAT,-0.0629
17,AACCTCG,0.167
18,ACAACAC,-0.0402
19,GGCAGGC,-0.0801
20,CTACGGC,-0.0734

row,Sequence,uncleaved DNA left (log2)
1,AACCCCC,0.0476
2,GTATACA,0.0079
3,TTTAATT,-0.0597
4,TTGCTGT,0.025
5,CCTTGTG,0.0413
6,GGCAAAC,0.0148
7,AAAGAAG,0.0791
8,TGGATGT,-0.137
9,TCTGCCT,-0.178
10,ACCATGA,0.137
11,GAGAGCA,0.0212
12,ATCATCC,0.0335
13,TGTTATT,-0.391
14,TATGCCG,-0.00637
15,AGGGCTG,0.00454
16,AGGTCAG,0.0816
17,GGGAACG,0.0385
18,CATTAGA,-0.0348
19,GCTGCTA,-0.101
20,GGGCAGA,-0.109
